According to the supplement of paper PMC10126150:
Sequences with one replicate were seen in a single cluster, so their values are uncertain.

System: ATP
Assay: switch fluorescence ratio, 500 uM ATP over buffer (Cy3 cluster intensity, sum of 5 cycles each) (fold (ratio)); higher = stronger signal-on switching upon ATP binding; sequences stand for … in TCGTCGGCAGCGTCAGATGTGTATAAGAGACAGTTTTTTTTTTTTTTTTTTTTTTTTT…TC
Details: aptamer strand: ATP DNA aptamer (quencher-CACCTGGGGGAGTATTGCGGAGGAAGG + anchor), 100 nM annealed; ATP concentration: 500 uM; one replicate
Procedure, shortened: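 The quencher-labelled ATP aptamer, at 100 nM, was annealed to Cy3-labelled switching-strand clusters on a modified Illumina MiSeq flow-cell. The clusters were imaged in selection buffer, then after 15 min with 500 uM ATP at 22 °C, and this buffer/ATP cycle ran five times with NaOH stripping and re-annealing between runs. Per-cluster fluorescence ratios, summed target-cycle over summed buffer-cycle Cy3 intensity, were averaged per switch-domain sequence. Clusters outside 100-1000 RFU were excluded.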
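Further: ATP exposure 15 min at 22 °C before imaging.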

| Sequence | switch fluorescence ratio |
| --- | --- |
| AATCGGTATG | 0.991 |
| AATCGGTGAA | 1.03 |
| AATCGTGTAA | 0.993 |
| AATCTAATAT | 0.996 |
| AATCTCATTT | 1.02 |
| AATCTCGCTA | 1.13 |
| AATCTGATTT | 0.988 |
| AATCTGTTA | 0.982 |
| AATCTTTTTT | 1.02 |
| AATGAACAGC | 1 |
| AATGAATCTC | 1.05 |
| AATGAATGAT | 1.03 |
| AATGACAATA | 1.06 |
| AATGAGATTA | 1.01 |
| AATGAGTGC | 1.01 |
| AATGATTACT | 1.01 |
| AATGATTTT | 0.938 |
| AATGCAGGGT | 1.02 |
| AATGCAGTGG | 0.947 |
| AATGCGACGA | 1.03 |
| AATGCGCATT | 0.961 |
| AATGCGGAAT | 1.03 |
| AATGCGGACT | 1.02 |
| AATGCGTTGA | 1.04 |
| AATGCGTTTG | 1 |
| AATGCTAGTT | 1.06 |

| Sequence | switch fluorescence ratio |
| --- | --- |
| AATGCTCAGG | 1.08 |
| AATGCTCCTT | 1.05 |
| AATGCTGAAG | 1.03 |
| AATGCTGGGA | 1.01 |
| AATGCTTAAG | 1 |
| AATGCTTCGC | 0.976 |
| AATGGCGCA | 0.983 |
| AATGGGCCAT | 0.954 |
| AATGGGGTC | 1 |
| AATGGTAGTG | 0.982 |
| AATGTCCTCC | 1.11 |
| AATGTCTACT | 1.02 |
| AATGTCTTGA | 1.02 |
| AATGTGTCCT | 1.05 |
| AATGTGTTTA | 1.01 |
| AATGTTACCA | 1.06 |
| AATTAAATAC | 1.2 |
| AATTAAGACA | 0.951 |
| AATTAAGTCC | 1.02 |
| AATTAATAAA | 1 |
| AATTACAT | 1.01 |
| AATTACGGGG | 1.01 |
| AATTAGAACG | 0.979 |
| AATTAGCTCG | 1 |
| AATTAGGCC | 1 |
| AATTAGTCTT | 0.954 |

| Sequence | switch fluorescence ratio |
| --- | --- |
| AATTATAACA | 1 |
| AATTATCCCC | 1.04 |
| AATTATGATC | 0.98 |
| AATTATGGTA | 1.02 |
| AATTATTAGT | 1.01 |
| AATTCAGTGA | 1 |
| AATTCATGTC | 1.14 |
| AATTCCAGCG | 1 |
| AATTCCGGAG | 2.53 |
| AATTCGATGT | 0.967 |
| AATTCTATCT | 0.997 |
| AATTCTCGAC | 1.03 |
| AATTCTCGTC | 1.01 |
| AATTGATACT | 1.03 |
| AATTGATCTC | 0.983 |
| AATTGCACTT | 1.06 |
| AATTGCCGCA | 1.06 |
| AATTGGCCGC | 1.03 |
| AATTGGGTGA | 1.02 |
| AATTGGTACT | 1.01 |
| AATTGTAAGG | 1.01 |
| AATTGTGAGA | 0.993 |
| AATTGTGCAG | 0.946 |
| AATTGTGGAT | 1.26 |
| AATTGTGTTC | 0.975 |
| AATTGTTGCA | 1.01 |

| Sequence | switch fluorescence ratio |
| --- | --- |
| AATTGTTTG | 1 |
| AATTTAGCGA | 0.982 |
| AATTTATCAC | 0.992 |
| AATTTATCTC | 0.999 |
| AATTTC | 1.03 |
| AATTTCGCTG | 1 |
| AATTTCTCAC | 1.02 |
| AATTTGTCTT | 1.01 |
| AATTTGTTT | 1.02 |
| AATTTTACCA | 1.06 |
| AATTTTAGAC | 1.04 |
| AATTTTATAT | 0.975 |
| AATTTTCTGG | 0.993 |
| AATTTTCTTA | 0.968 |
| AATTTTGACC | 0.995 |
| AATTTTTTTA | 1.02 |
| ACAAAAAATA | 0.998 |
| ACAAAAGCGT | 1.04 |
| ACAAACACGG | 1.34 |
| ACAAAGAGTA | 1.01 |
| ACAAAGTTCG | 1.03 |
| ACAAATAGGA | 1 |
| ACAAATAGGT | 1 |
| ACAAATCTAT | 1.06 |
| ACAAATTAAT | 1 |
| ACAACATCAG | 0.983 |

| Sequence | switch fluorescence ratio |
| --- | --- |
| ACAACCAGTG | 3.38 |
| ACAACCCAGC | 1.15 |
| ACAACTGTA | 1.17 |
| ACAAGACACT | 1.02 |
| ACAAGAGGTA | 1.02 |
| ACAAGGAGAC | 1.01 |
| ACAAGGAGG | 0.996 |
| ACAAGGTTCT | 0.999 |
| ACAAGTGGGT | 1.02 |
| ACAATATCGT | 0.992 |
| ACAATATTTC | 1.05 |
| ACAATCATCT | 1.01 |
| ACAATCGCTG | 1.01 |
| ACAATCGGCA | 0.989 |
| ACAATCGGGT | 0.963 |
| ACAATCTCGA | 0.98 |
| ACAATGGATC | 1.02 |
| ACAATTAGTG | 1.02 |
| ACAATTGTTC | 1.02 |
| ACAATTTTCG | 0.982 |
| ACACACGTTG | 1.31 |
| ACACATCGAT | 0.98 |
| ACACCCGTGT | 1.03 |
| ACACCGCTAG | 2.22 |
| ACACCTCGAT | 1.04 |
| ACACGTTAGG | 1.03 |

| Sequence | switch fluorescence ratio |
| --- | --- |
| ACACTCCTTT | 1.03 |
| ACACTTTGCT | 0.999 |
| ACACTTTTTG | 0.988 |
| ACAGAATGGG | 0.942 |
| ACAGAATGT | 0.976 |
| ACAGAGAAAC | 1.07 |
| ACAGATGAAC | 1.03 |
| ACAGCAACCA | 1.38 |
| ACAGCAAGCA | 1.19 |
| ACAGCATGAG | 1.02 |
| ACAGCCAAGC | 1 |
| ACAGCCGAAC | 1.08 |
| ACAGCTGTTG | 1 |
| ACAGCTTGGC | 1.05 |
| ACAGGCACTA | 1.05 |
| ACAGGGATTA | 0.999 |
| ACAGGGCTTA | 0.997 |
| ACAGGTTCCG | 0.989 |
| ACAGTAAATG | 1.02 |
| ACAGTAAGGC | 1.19 |
| ACAGTAAGGT | 1.03 |
| ACAGTATAGG | 1.08 |
| ACAGTCTGTC | 0.899 |
| ACAGTGACAT | 1.07 |
| ACAGTGTGAA | 1.02 |
| ACAGTTACAT | 1.15 |

| Sequence | switch fluorescence ratio |
| --- | --- |
| ACAGTTAGGC | 1 |
| ACAGTTGGTA | 1.03 |
| ACAGTTTGGT | 1.04 |
| ACATAAAGAC | 1.11 |
| ACATAAAGTG | 0.988 |
| ACATAACGTA | 1.22 |
| ACATAATTTT | 1.01 |
| ACATACATCG | 1.22 |
| ACATACTCCT | 1.38 |
| ACATACTTAT | 1.34 |
| ACATAGCCA | 1.05 |
| ACATAGGTAG | 0.935 |
| ACATAGGTAT | 1 |
| ACATATATAC | 1.23 |
| ACATATCCAT | 1.03 |
| ACATCAAAGT | 1.01 |
| ACATCACCGA | 1.25 |
| ACATCACCTC | 1.26 |
| ACATCCAAGT | 1.05 |
| ACATCCAGAC | 1.15 |
| ACATCCAGTA | 0.958 |
| ACATCTCAGC | 1.01 |
| ACATCTGAGA | 0.997 |
| ACATCTTAGT | 1.02 |
| ACATCTTTTT | 1.02 |
| ACATGACTGG | 0.991 |

| Sequence | switch fluorescence ratio |
| --- | --- |
| ACATGCGGT | 1.03 |
| ACATGCTAG | 1.02 |
| ACATGCTCGA | 1.06 |
| ACATGGATAC | 1.13 |
| ACATGGGGAT | 1.01 |
| ACATGGTGGT | 1.09 |
| ACATGTCGTC | 0.971 |
| ACATTAGGCC | 1.03 |
| ACATTAGTCA | 1 |
| ACATTCTCGG | 1.01 |
| ACATTGCTGT | 0.991 |
| ACATTTGGCA | 1.06 |
| ACATTTTGCC | 1.05 |
| ACCAAAGCAC | 2.45 |
| ACCAACCAGG | 1.76 |
| ACCAAGGACG | 1.03 |
| ACCAAGTTCT | 1.01 |
| ACCACCCCAC | 1.32 |
| ACCACCCTT | 1.06 |
